PubChem BioAssay (NCATS)
The inconclusive results got no clear call from the source; some entries with a clear call stand among them for comparison. Potencies of inconclusive entries are left out as doubtful fits. Calls of active or inactive are those of the source. Calls come from the whole dose curve; as a rule, active = well fitted curve in the direction sought with a large enough effect; inconclusive = small, poorly fitted or top-dose-only effect, or another doubt; inactive = no such curve, though single readings can be large; an effect the other way counts as inactive or inconclusive.

test system: not listed separately; test: Primary fluorescence-based thiol-reactive (MSTI) qHTS assay for identification of artifact compounds. (AID 1845221); details: MSTI thiol-reactivity probe, 1 h; series mostly up to 53.8 µM; activity change, negative = thiol reactive: at the top concentration;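 note: thiol-reactive compounds lower the probe fluorescence signal; nearly all actives have a fitted effect of over 65% in size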
Method in brief: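 A multi-concentration qHTS design tested compounds against 4 uM MSTI, pH 7.4 phosphate-buffered saline. Plates were protected from light for 1 h at room temperature before imaging fluorescence.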
Potency is the fitted concentration of half-maximal effect; tags give direction and shape of the fitted curve.

Row | Compound | activity change, negative = thiol reactive | Potency
1 | COc1cc(C)c(C(=O)O[C@@H]2[C@H](O)[C@@H](CO)O[C@H]2n2ccc(=O)[nH]c2=O)c(OC)c1 | inactive: 21.8% [at 25.6 µM] | –
2 | C/C(=C/CO)CC[C@@H]1[C@@](C)(O)CCC2C(C)(C)CCC[C@]21C (some centres not stated) | – | inconclusive [inhibitor, single point]
3 | C/C(=C/CO)CC[C@@H]1[C@@]2(C)CCC[C@](C)(C(=O)O)C2CC[C@@]1(C)O (some centres not stated) | – | inconclusive [inhibitor, partial curve, poor fit]
4 | CC/C=C/CC1=C(CCCCCCCC(=O)O)CCC1=O | inactive: 23.2% | –

test system: not listed separately; test: Primary redox qHTS assay for identification of artifact compounds. (AID 1845223); details: Amplex Red/HRP redox cycling with DTT, fluorescence; series mostly up to 53.8 µM; redox activity (% of DA3003): at the top concentration;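 for redox activity (% of DA3003): 0% = DMSO and 100% = reference compound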
Method in brief: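 Amplex Red (25 uM) and HRP (250 mU/mL) in HBSS, with compounds for 15 min, then 250 uM DTT for 30 min, room temperature, dark. Fluorescence 525/598 nm read; normalized to DMSO and 10 uM DA3003; Hill fit.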

Row | Compound | Potency | redox activity (% of DA3003)
5 | CC[C@@H]1[C@H]2CCCCN3C(=O)C[C@H]([C@@H]4[C@H]1OC(=O)[C@H]4C)[C@@H]23 | inconclusive [activator, partial curve, poor fit] | –
6 | CC1OC(OC2C(O)C(OC3CCC4(C)C(CCC5(C)C4CC=C4C6CC(C)(COC7OC(CO)C(O)C(O)C7O)CC(O)C6(C)CCC45C)C3(C)C)OC(C(=O)O)C2O)C(O)C(O)C1OC1OCC(O)C(O)C1O (configuration not stated) | inconclusive [activator, partial curve] | –
7 | Cc1cc(C(=O)N2CCCCc3ccccc32)ccc1CNC(=O)N1CCC[C@H]1C(=O)N(C)C | – | inactive: 11.3%
8 | C=CC(C)(O)CC/C=C(\C)C1CC=C(C)C(=O)O1 (configuration not stated) | inconclusive [activator, single point] | –
9 | C[C@]12C=CC(=O)C=C1CC[C@@H]1[C@@H]2[C@@H](O)C[C@@]2(C)[C@H]1CC[C@]2(O)C(=O)COC(=O)CCC(=O)O | inconclusive [activator, partial curve, poor fit] | –
10 | C=C1CCC2C(C)(C)CC(O)CC2(C)C1CCC(C)CCOC(=O)CCC(=O)O (configuration not stated) | inconclusive [activator, partial curve, poor fit] | –
11 | CC(C)=CCC/C(C)=C/CO[C@@H]1O[C@H](CO)[C@@H](OC(=O)/C=C/c2ccc(O)cc2)[C@H](O[C@@H]2O[C@@H](C)[C@H](O)[C@@H](O)[C@H]2O)[C@H]1O | inconclusive [activator, partial curve, poor fit] | –
12 | Nc1nc(CC(=O)Nc2ccc(CCNCC(O)c3ccccc3)cc2)cs1 (configuration not stated) | – | inactive: -5.96%
13 | C[C@@H]1O[C@@H](O[C@H]2[C@H](O)[C@@H](O)[C@H](OC(=O)[C@]34CCC(C)(C)C[C@H]3C3=CCC5[C@@]6(C)CC[C@H](O[C@@H]7O[C@H](C(=O)O)[C@@H](O)[C@H](O)[C@H]7O)C(C)(C)C6CC[C@@]5(C)[C@]3(C)CC4)O[C@@H]2CO)[C@H](O)[C@H](O)[C@H]1O (some centres not stated) | inconclusive [activator, partial curve, poor fit] | –
14 | O=C(/C=C/N1C[C@@H]2C[C@@H]1CN2c1ccccn1)c1ccccc1O | inconclusive [activator, partial curve, poor fit] | –
15 | Cc1occc(=O)c1O[C@@H]1O[C@H](CO)[C@@H](O)[C@H](O)[C@H]1O | – | inactive: -10.1%

test system: SKOV3; test: Primary qHTS to identify gynecologic anti-cancer compounds using libraries of approved drugs and bioactive compounds (AID 1345084); details: Gynecologic cancer cell panel viability, ATPlite luminescence, 48 h; series mostly up to 57.5 µM; activity change, negative = cytotoxicity: at the top concentration; note: nearly all actives have a fitted effect of over 55% in size; for activity change, negative = cytotoxicity: % is set by controls: 0 for no effect and ±100 for the full control effect
Method in brief: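 ATP-based viability (ATPlite), 1,000 cells/well, 16 h pre-incubation, 48 h compound at 37 C, 5% CO2, 15 min RT before read.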

Row | Compound | activity change, negative = cytotoxicity | Potency
16 | CC[C@@H](O)C[C@@H]1C(C)=C[C@@H]2CCCC[C@@H]2[C@@]1(C)C(=O)O | inactive: -3.44% | –
17 | O=C(O)C[C@H]1CCC(=O)[C@@H]1C/C=C\CCOC1OC(CO)C(O)C(O)C1O (some centres not stated) | – | inconclusive [rising, full curve, poor fit]
18 | C=CC(C)(O)C1CC2C3(C)CCCC(C)(C)C3C(O)C(O)C2(C)O1 (configuration not stated) | – | inconclusive [rising, partial curve, poor fit]
19 | C/C1=C\CCC2=C[C@@H](OC2=O)c2c(C)coc2C1 | inactive: 28.2% | –
20 | CC1CCC2C(C)(C)C(O)CCC2(C)C12Cc1c(O)cc3c(c1O2)CN=C3N (configuration not stated) | inactive: 25.3% [at 38.5 µM] | –
21 | COc1c(C)c(OCC(O)C(C)(C)O)cc2c1CNC2=O (configuration not stated) | inactive: 8.34% | –
22 | CC[C@@H]1[C@H]2CCCCN3C(=O)C[C@H]([C@@H]4[C@H]1OC(=O)[C@H]4C)[C@@H]23 | – | inconclusive [rising, partial curve, poor fit]
23 | C[C@@H]1O[C@@H](O[C@@H]2[C@@H](O[C@@H]3O[C@@H](C)[C@H](O[C@@H]4OC[C@H](O)[C@H](O[C@@H]5OC[C@@H](O)[C@H](O)[C@H]5O)[C@H]4O)[C@@H](O[C@@H]4OC[C@](O)(CO)[C@H]4O)[C@H]3O)[C@H](OC(=O)[C@]34CCC(C)(C)C[C@H]3C3=CCC5[C@@]6(C)C[C@H](O)[C@H](O[C@@H]7O[C@H](CO[C@@H]8OC[C@H](O)[C@H](O)[C@H]8O)[C@@H](O)[C@H](O)[C@H]7O)C(C)(C)C6CC[C@@]5(C)[C@]3(C)C[C@H]4O)OC[C@H]2O)[C@H](O)[C@H](O)[C@H]1O (some centres not stated) | inactive: 4.47% [at 6.55 µM] | –
24 | CC1OC(OC2C(O)C(OC3CCC4(C)C(CCC5(C)C4CC=C4C6CC(C)(COC7OC(CO)C(O)C(O)C7O)CC(O)C6(C)CCC45C)C3(C)C)OC(C(=O)O)C2O)C(O)C(O)C1OC1OCC(O)C(O)C1O (configuration not stated) | inactive: 37.6% [at 11.6 µM] | –
25 | Cc1cc(C(=O)N2CCCCc3ccccc32)ccc1CNC(=O)N1CCC[C@H]1C(=O)N(C)C | – | inconclusive [rising, partial curve, poor fit]
26 | Cc1cc(O[C@@H]2O[C@H](COC(=O)CC(=O)O)[C@@H](O)[C@H](O)[C@H]2O)c(C(C)C)cc1O | – | inconclusive [rising, partial curve, poor fit]
27 | C=CC(C)(O)CC/C=C(\C)C1CC=C(C)C(=O)O1 (configuration not stated) | inactive: 21.3% | –
28 | C[C@]12C=CC(=O)C=C1CC[C@@H]1[C@@H]2[C@@H](O)C[C@@]2(C)[C@H]1CC[C@]2(O)C(=O)COC(=O)CCC(=O)O | inactive: -6.64% | –
29 | C=C1CCC2C(C)(C)CC(O)CC2(C)C1CCC(C)CCOC(=O)CCC(=O)O (configuration not stated) | inactive: -16.6% [at 25.3 µM] | –
30 | CC(=O)NCCCCn1c2c(c3ccccc31)C(=O)NCC2 | – | inconclusive [cytotoxic, partial curve, poor fit]
31 | CC(=O)OC[C@]12[C@H](OC(C)=O)[C@H](OC(=O)c3ccccc3)[C@@H]3[C@@H](OC(C)=O)[C@]1(OC3(C)C)[C@H](C)C[C@H](OC(=O)c1ccccc1)[C@@H]2OC(=O)c1ccccc1 | inactive: 12.6% [at 25.3 µM] | –
32 | O=C(O)c1ccnc2cc(-c3nc4ccccc4n3CCN3CCCCC3)sc12 | – | inconclusive [rising, full curve]
33 | NCc1c[nH]c(=S)n1C1CCc2c(F)cc(F)cc2C1 (configuration not stated) | inactive: 3.66% | –
34 | CC(C)=CCC/C(C)=C/CO[C@@H]1O[C@H](CO)[C@@H](OC(=O)/C=C/c2ccc(O)cc2)[C@H](O[C@@H]2O[C@@H](C)[C@H](O)[C@@H](O)[C@H]2O)[C@H]1O | inactive: 51.6% [at 25.3 µM] | –

Row | Compound | activity change, negative = cytotoxicity | Potency
35 | Nc1nc(CC(=O)Nc2ccc(CCNCC(O)c3ccccc3)cc2)cs1 (configuration not stated) | – | inconclusive [cytotoxic, single point]
36 | C[C@@H]1O[C@@H](O[C@H]2[C@H](O)[C@@H](O)[C@H](OC(=O)[C@]34CCC(C)(C)C[C@H]3C3=CCC5[C@@]6(C)CC[C@H](O[C@@H]7O[C@H](C(=O)O)[C@@H](O)[C@H](O)[C@H]7O)C(C)(C)C6CC[C@@]5(C)[C@]3(C)CC4)O[C@@H]2CO)[C@H](O)[C@H](O)[C@H]1O (some centres not stated) | – | inconclusive [rising, single point]
37 | Nc1nc2c(nc(Sc3ccc(Cl)cc3)n2[C@@H]2O[C@@H]3COP(=O)(O)O[C@H]3[C@H]2O)c(=O)[nH]1 | – | inconclusive [rising, single point]
38 | CCOc1ccc2nc(SCCN3CCOCC3)[nH]c2c1 | inactive: 25.3% | –
39 | O=S(=O)(Nc1ccc(C(O)(C(F)(F)F)C(F)(F)F)cc1)c1cccs1 | inactive: 6.1% | –
40 | Oc1ccc(CC2NCCc3cc(O)c(O)cc32)cc1 (configuration not stated) | inactive: 0% | –
41 | COc1cc(C)c(C(=O)O[C@@H]2[C@H](O)[C@@H](CO)O[C@H]2n2ccc(=O)[nH]c2=O)c(OC)c1 | inactive: 2.2% [at 25.3 µM] | –
42 | OC[C@H]1O[C@@H](OC(CCCCc2ccc(O)cc2)CCc2ccc(O)cc2)[C@H](O[C@@H]2OC[C@](O)(CO)[C@H]2O)[C@@H](O)[C@@H]1O (some centres not stated) | inactive: -2.82% [at 25.3 µM] | –
43 | CO[C@H]1O[C@@H]2O[C@]3(C)CC[C@H]4[C@H](C)CC[C@@H]([C@H]1C)[C@@]24OO3 | – | inconclusive [rising, full curve, poor fit]
44 | CC(=O)C1CCC2(C)C3=C(CCC12C)C1(C)CCC(=O)C(C)(C)C1CC3 (configuration not stated) | inactive: 0% [at 38.5 µM] | –
45 | O=C(c1ccc2nccnc2c1)N1CCCCC1 | – | inconclusive [rising, full curve, poor fit]
46 | CC(C)(C)NCC(O)COc1cccc2c1CCCC2=O (configuration not stated) | inactive: 9.65% | –
47 | O=C(/C=C/N1C[C@@H]2C[C@@H]1CN2c1ccccn1)c1ccccc1O | – | inconclusive [rising, partial curve, poor fit]
48 | C/C(=C/CO)CC[C@@H]1[C@@](C)(O)CCC2C(C)(C)CCC[C@]21C (some centres not stated) | – | inconclusive [rising, partial curve, poor fit]
49 | CC(=O)O[C@@H](CO[C@@H]1O[C@H](CO)[C@H](O)[C@H](O)[C@H]1O)[C@]1(C)C=C2CC[C@@H]3C(C)(C)[C@@H](O)CC[C@@]3(C)[C@@H]2CC1 | inactive: -1.39% [at 25.3 µM] | –
50 | CCCCc1nc(C)c(CC(=S)N(C)C)c(=O)n1Cc1ccc(-c2ccccc2-c2nn[nH]n2)cc1 | – | inconclusive [cytotoxic, single point]
51 | O=C(O)Cn1nnc(-c2ccc(CN(CCCCOc3ccc(CN4CCCC4)cc3)CCc3ccccc3)cc2)n1 | – | inconclusive [rising, full curve, poor fit]
52 | Cc1occc(=O)c1O[C@@H]1O[C@H](CO)[C@@H](O)[C@H](O)[C@H]1O | inactive: 24.1% | –
